About 14,000 (4.5%) of roughly 310,000 compounds showed an effect of 50% or more. Effects have a minus sign here. The list shows a part of the results.
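Note: peak tail current of the secondary pulse compared with the same well before compound.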

Sequence of human ether-à-go-go-related gene (hERG) potassium channel (Q12809 whole entry, looked up): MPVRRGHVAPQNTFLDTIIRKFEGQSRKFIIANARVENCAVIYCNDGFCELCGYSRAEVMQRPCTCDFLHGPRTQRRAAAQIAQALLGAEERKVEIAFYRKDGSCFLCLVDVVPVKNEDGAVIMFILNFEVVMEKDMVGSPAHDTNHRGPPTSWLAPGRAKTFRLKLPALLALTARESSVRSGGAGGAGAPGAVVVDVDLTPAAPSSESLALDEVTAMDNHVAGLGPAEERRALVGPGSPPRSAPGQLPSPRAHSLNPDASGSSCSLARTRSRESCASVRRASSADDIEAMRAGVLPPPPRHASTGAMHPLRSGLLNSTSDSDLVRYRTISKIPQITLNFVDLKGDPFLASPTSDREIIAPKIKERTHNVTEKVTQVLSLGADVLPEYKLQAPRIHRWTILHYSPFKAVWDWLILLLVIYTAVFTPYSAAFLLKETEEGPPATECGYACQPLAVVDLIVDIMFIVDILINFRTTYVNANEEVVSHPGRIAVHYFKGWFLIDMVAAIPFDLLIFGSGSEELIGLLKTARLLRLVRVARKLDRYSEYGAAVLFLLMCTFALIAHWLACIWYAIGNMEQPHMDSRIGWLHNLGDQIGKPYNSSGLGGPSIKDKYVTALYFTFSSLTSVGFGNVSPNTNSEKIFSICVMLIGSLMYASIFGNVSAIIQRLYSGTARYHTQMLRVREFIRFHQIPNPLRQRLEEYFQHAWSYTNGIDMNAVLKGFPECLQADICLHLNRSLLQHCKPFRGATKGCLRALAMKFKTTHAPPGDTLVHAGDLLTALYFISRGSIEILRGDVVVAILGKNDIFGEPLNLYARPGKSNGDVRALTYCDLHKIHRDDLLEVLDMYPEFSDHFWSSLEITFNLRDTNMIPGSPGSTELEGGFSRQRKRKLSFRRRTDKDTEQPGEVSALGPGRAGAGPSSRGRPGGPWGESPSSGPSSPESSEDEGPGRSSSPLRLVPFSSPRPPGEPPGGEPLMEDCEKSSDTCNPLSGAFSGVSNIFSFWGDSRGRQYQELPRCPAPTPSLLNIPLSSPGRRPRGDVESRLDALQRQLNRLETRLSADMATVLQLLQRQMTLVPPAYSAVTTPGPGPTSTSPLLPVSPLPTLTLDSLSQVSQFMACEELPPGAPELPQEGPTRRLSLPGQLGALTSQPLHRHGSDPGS

The assay has as its target human ether-à-go-go-related gene (hERG) potassium channel (human, UniProt Q12809). Nature of the assay: primary screen, population patch clamp on CHO cells stably expressing hERG.
As for `O=C(CN(C(=O)CSc1nnc(COc2ccccc2)o1)c1ccc(F)cc1)NC1CCCCC1`, the “hERG current change (%, negative = inhibition) at 10uM” value was -15.8%.

Turning to `Cc1ccc(N2CCN(S(=O)(=O)c3cccs3)CC2C)cc1` (centres unmarked), the “hERG current change (%, negative = inhibition) at 10uM” value was -8.24%. The value for `O=C(CSc1nnc(NC(=O)c2c(F)cccc2F)s1)Nc1ccc(F)cc1` was -11.7%. Regarding `COC(C(=O)Nc1ccc(F)c(F)c1)c1ccccc1` (centres unmarked), the “hERG current change (%, negative = inhibition) at 10uM” value is -13.7%. With `CCOC(=O)C1(Cc2ccccc2)CCN(Cc2ccc(C)s2)CC1`, the “hERG current change (%, negative = inhibition) at 10uM” value was -46%. For the compound `O=C(c1ccc(CS(=O)(=O)c2ccccc2)o1)N1CCN(c2ncccn2)CC1`, the “hERG current change (%, negative = inhibition) at 10uM” value was -14.5%. `CC(C)=CC(=O)OCC(=O)NC1CCCc2ccccc21` (centres unmarked): the “hERG current change (%, negative = inhibition) at 10uM” value is listed as 1.17%. As to `N#Cc1c(NC(=S)NC(=O)c2ccccc2)sc2c1CCN(CCc1ccccc1)C2`, the “hERG current change (%, negative = inhibition) at 10uM” value is -27.1%. As to `CON(c1nc(Cl)nc(N(C)C)n1)S(=O)(=O)c1ccccc1Cl`, the “hERG current change (%, negative = inhibition) at 10uM” value is listed as 3.34%.

Take `COc1ccccc1-c1noc(-c2ccccc2C(=O)NCC2CCCO2)n1` (centres unmarked): the “hERG current change (%, negative = inhibition) at 10uM” value came to 9.42%.

With `CCCn1cc(S(=O)(=O)c2ccccc2)c(=O)c2cc(CC)ccc21`, the “hERG current change (%, negative = inhibition) at 10uM” value stood at 21.3%. As for `O=C(N/N=C/c1ccccc1O)C1SCCCS1`, the “hERG current change (%, negative = inhibition) at 10uM” value is 3.55%. As for `CN(CC(=O)Nc1ccccc1Cl)C(=O)c1cccc(S(=O)(=O)N2CCN(c3ccc(F)cc3)CC2)c1`, the “hERG current change (%, negative = inhibition) at 10uM” value is on record as -13.4%. As to `COc1cc(S(=O)(=O)N2CCOCC2)ccc1N`, the “hERG current change (%, negative = inhibition) at 10uM” value is reported as 18.8%. As to `CCc1noc(C)c1C(=O)Nc1nc2ccc(S(C)(=O)=O)cc2s1`, the “hERG current change (%, negative = inhibition) at 10uM” value is given as -5.83%. Take `Cc1c(Cl)cccc1-n1c(SCC(=O)N2CCC(C(=O)O)CC2)nnc1-c1ccncc1`: the “hERG current change (%, negative = inhibition) at 10uM” value is recorded as 41%. Take `c1ccc2cc(CSCc3nc4ccccc4[nH]3)ccc2c1`: the “hERG current change (%, negative = inhibition) at 10uM” value is -0.252%. `Cc1ccc(C(=O)NC(=S)Nc2c(C)ccc3nsnc23)cc1`: the “hERG current change (%, negative = inhibition) at 10uM” value was found to be 0.39%. Take `Cc1nn(-c2ccccc2)c(Cl)c1/C=N/NS(=O)(=O)c1ccc(Br)cc1`: the “hERG current change (%, negative = inhibition) at 10uM” value stood at 7.93%.

With `COc1ccc(CC(=O)NC2CCN(CC(=O)Nc3ccc4c(c3)OCCO4)CC2)cc1OC`, the “hERG current change (%, negative = inhibition) at 10uM” value was -1.63%.

For the compound `CC(C)OC(=O)CC1C(=O)NCCN1C(=S)NC(=O)CCc1ccccc1` (centres unmarked), the “hERG current change (%, negative = inhibition) at 10uM” value is listed as -6.97%. Take `FC(F)(F)c1ccc(C2[C@H]3CN(Cc4ccc(-c5ccccc5)cc4)[C@H](c4ccccc4)C34CC2(c2ccccc2)C4)cc1` (some centres unmarked): the “hERG current change (%, negative = inhibition) at 10uM” value worked out at 17.3%. Consider `CN1CCN(CC(=O)N2c3ccccc3C(C)(c3ccc(Cl)cc3)CC2(C)C)CC1` (centres unmarked), for which the “hERG current change (%, negative = inhibition) at 10uM” value is reported as -21.1%. In the case of `COc1ccc(N2CCN(C(=O)CSc3nc4nc(C)cc(C)n4n3)CC2)cc1`, the “hERG current change (%, negative = inhibition) at 10uM” value is listed as -27.8%. The value for `O=C(CCSc1nc(-c2ccco2)cc(C(F)(F)F)n1)N1CCN(c2ccccc2)CC1` was -0.756%. For the compound `O=C(C1CCC(=O)N1C1CCCC1)N1CCC2(CC1)OCCO2` (centres unmarked), the “hERG current change (%, negative = inhibition) at 10uM” value came to 11.3%. For `C=CCn1c(SCC(=O)c2c(N)n(C3CC3)c(=O)[nH]c2=O)nnc1-c1ccoc1C`, the “hERG current change (%, negative = inhibition) at 10uM” value is listed as -0.51%.

For `Cc1nnc2n1N=CC=C(c1ccccc1)S2`, the “hERG current change (%, negative = inhibition) at 10uM” value was -26.8%. With `COc1ccc(-c2noc(CCC(=O)NCCc3cccc(C)c3)n2)cc1`, the “hERG current change (%, negative = inhibition) at 10uM” value is on record as -0.562%. Turning to `O=C(c1ccccc1)N1CC[NH+](CC(O)COC2CCCCC2)CC1.[Cl-]` (centres unmarked), the “hERG current change (%, negative = inhibition) at 10uM” value is given as -42.5%. With `C=CCn1c(SCC(=O)/C(C#N)=C(\C)N)nc2sc(C)c(C)c2c1=O`, the “hERG current change (%, negative = inhibition) at 10uM” value is listed as -7.73%. As for `Clc1ccc(/C=N/Nc2nnc(-c3ncc[nH]3)c3ccccc23)cc1`, the “hERG current change (%, negative = inhibition) at 10uM” value was -9.21%.

In the case of `O=C(CN1CCN(C(=O)CNC(=O)c2ccc3c(c2)OCO3)CC1)Nc1ccc(F)cc1`, the “hERG current change (%, negative = inhibition) at 10uM” value is recorded as -39.5%.

With `COC(=O)c1ccccc1-n1c(C)nc2ccccc2c1=O`, the “hERG current change (%, negative = inhibition) at 10uM” value is given as -3.37%. On to `CCCCN(CC)C(=O)Cc1cn(C)c2ccccc12`, for which the “hERG current change (%, negative = inhibition) at 10uM” value is recorded as -7.34%. Consider `CCCCn1c(N)c(N(CC(C)C)C(=O)CC2CCCC2)c(=O)[nH]c1=O`, for which the “hERG current change (%, negative = inhibition) at 10uM” value is listed as 6.4%. For `CCOc1ccc(/C=C/C(=O)Nc2cccc(C(C)=O)c2)cc1`, the “hERG current change (%, negative = inhibition) at 10uM” value was 8.25%. The value for `CC(C)CC(=O)Nc1ccnc(-c2ccncc2)n1` was -26.6%; that for `CCN(C(=O)COC(=O)Cc1c[nH]c2ccccc12)c1c(N)n(Cc2ccccc2)c(=O)[nH]c1=O` was 16.3%. As for `O=C(NC1CC1)C1CCCN(C(=O)NC2CCCCC2)C1` (centres unmarked), the “hERG current change (%, negative = inhibition) at 10uM” value is reported as -0.046%.

As to `Cc1ccc(CCC2C3=C(CCCC3=O)OC3=C2C(=O)CCC3)cc1`, the “hERG current change (%, negative = inhibition) at 10uM” value is recorded as -2.32%.

Consider `CCN(CC)S(=O)(=O)c1cc(C(=O)N=c2sccn2C)ccc1OC`, for which the “hERG current change (%, negative = inhibition) at 10uM” value was 8.14%. Regarding `COc1ccc(C(=O)OC(C)C(=O)NC2CCCCC2C)cc1S(=O)(=O)N1CCOCC1` (centres unmarked), the “hERG current change (%, negative = inhibition) at 10uM” value is -7.8%. Take `COc1cc(O)c(CCO)c2c1C(=O)C[C@@H](C)O2`: the “hERG current change (%, negative = inhibition) at 10uM” value was -12.4%.

These data come from article PMC4336329 (PLoS ONE, 2015).
